According to the supplement of paper PMC8728848:
Some of the results follow.

Assays:
Test in all cases: glycan array binding signal (z-score within array); higher = stronger binding
Settings in all cases: glycan notation: IUPAC condensed, linker removed
[1] = target: GlcNAc(b1-3)Gal(b1-4)GlcNAc(b1-3)Gal(b1-4)GlcNAc(b1-3)GalNAc
Method in brief: (§1)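 The binding signal is a Z-score computed within each array and averaged over linkers. Arrays of the same protein sequence at different concentrations or buffers were also averaged together. Data originate from 3228 arrays in the Consortium for Functional Glycomics database, kept only where the protein sequence was available.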

[2] = target: GlcNAc(b1-3)Gal(b1-4)GlcNAc(b1-3)GalNAc
Method in brief: as §1

[3] = target: GlcNAc(b1-3)Gal(b1-4)GlcNAc(b1-3)[GlcNAc(b1-3)Gal(b1-4)GlcNAc(b1-3)]GalNAc
Method in brief: as §1

[4] = target: GlcNAc(b1-3)Gal(b1-4)GlcNAc(b1-6)[Gal(b1-3)]GalNAc
Method in brief: as §1

[5] = target: GlcNAc(b1-3)Gal(b1-4)GlcNAc(b1-6)[GlcNAc(b1-3)Gal(b1-3)]GalNAc
Method in brief: as §1

[6] = target: GlcNAc(b1-3)Gal(b1-4)GlcNAc(b1-6)[GlcNAc(b1-3)]Gal(b1-4)GlcNAc
Method in brief: as §1

GlcNAc(b1-3)GalNAc = target: GlcNAc(b1-3)GalNAc
Method in brief: as §1

GlcNAc(b1-3)Man = target: GlcNAc(b1-3)Man
Method in brief: as §1

[7] = target: GlcNAc(b1-3)[GlcNAc(b1-4)][GlcNAc(b1-6)]GlcNAc
Method in brief: as §1

[8] = target: GlcNAc(b1-3)[GlcNAc(b1-6)]Gal(b1-4)GlcNAc
Method in brief: as §1

[9] = target: GlcNAc(b1-3)[GlcNAc(b1-6)]GalNAc
Method in brief: as §1

[10] = target: GlcNAc(b1-4)Gal(b1-4)GlcNAc
Method in brief: as §1

GlcNAc(b1-4)GlcNAc = target: GlcNAc(b1-4)GlcNAc
Method in brief: as §1

[11] = target: GlcNAc(b1-4)GlcNAc(b1-4)GlcNAc
Method in brief: as §1

[12] = target: GlcNAc(b1-4)GlcNAc(b1-4)GlcNAc(b1-4)GlcNAc(b1-4)GlcNAc
Method in brief: as §1

[13] = target: GlcNAc(b1-4)GlcNAc(b1-4)GlcNAc(b1-4)GlcNAc(b1-4)GlcNAc(b1-4)GlcNAc
Method in brief: as §1

[14] = target: GlcNAc(b1-4)[GlcNAc(b1-6)]GalNAc
Method in brief: as §1

[15] = target: GlcNAc(b1-6)Gal(b1-4)GlcNAc
Method in brief: as §1

GlcNAc(b1-6)GalNAc = target: GlcNAc(b1-6)GalNAc
Method in brief: as §1

[16] = target: GlcNAc6S(b1-3)Gal(b1-4)GlcNAc
Method in brief: as §1

Kdn(a2-3)Gal(b1-3)GalNAc = target: Kdn(a2-3)Gal(b1-3)GalNAc
Method in brief: as §1

Kdn(a2-3)Gal(b1-3)GlcNAc = target: Kdn(a2-3)Gal(b1-3)GlcNAc
Method in brief: as §1

Kdn(a2-3)Gal(b1-4)Glc = target: Kdn(a2-3)Gal(b1-4)Glc
Method in brief: as §1

Kdn(a2-3)Gal(b1-4)GlcNAc = target: Kdn(a2-3)Gal(b1-4)GlcNAc
Method in brief: as §1

[17] = target: Kdn(a2-3)Gal(b1-4)[Fuc(a1-3)]GlcNAc
Method in brief: as §1

Kdn(a2-6)Gal(b1-4)GlcNAc = target: Kdn(a2-6)Gal(b1-4)GlcNAc
Method in brief: as §1

[18] = target: Man(a1-2)Man(a1-2)Man(a1-3)Man
Method in brief: as §1

[19] = target: Man(a1-2)Man(a1-2)Man(a1-6)[Man(a1-3)]Man
Method in brief: as §1

Man(a1-2)Man(a1-3)Man = target: Man(a1-2)Man(a1-3)Man
Method in brief: as §1

[20] = target: Man(a1-2)Man(a1-3)[Man(a1-2)Man(a1-6)]Man
Method in brief: as §1

B1: SialidaseA (Arthrobacter ureafaciens) (protein)
chain: MRSNSTSAPSLVRRAATGVLTCAVSIGLLAGLGLPAQAAPTPPNSPTLPPGSFSETNLAADRTAANFFYRIPALTYLGNDVVLAAWDGRPGSAADAPNPNSIVQRRSTDGGKTWGPVQVIAAGHVADASGPRYGYSDPSYIYDAEANKVFAFFVYSKDQGFGGSQFGNDDADRNVISSAVIESSDAGVTWSQPRLITSVTKPGTSKTNPAAGDVRSNFASSGEGIQLKYGPHKGRLIQQYAGDVRQADGSNKIQAYSVYSDDHGVTWHKGANVGDRMDENKTVELSDGRVLLNSRDNANRGYRKVAVSTDGGATYGPVSQDTELPDPANNGAIARMFPNAAQGSADAKKLIFTNANSKTGRENVSARVSCDDGETWPGVRTIRSGFSAYSTVTRLADGKFGVLYEGNYTDNMPFATFDDAWLNYVCAPLAVPAVNIAPSATQEVPVTVTNQEATTLSGATATVYTPSGWSATTVPVPDVAPGASVTVTVALTAPADASGPRSLNAAFTTADGRVSQFTFTATTPVAPQVGLTITGSAPARDVAANPYQAGDVLGYTLNVKSTANVAANSVPLTGTFDSGFLPPAAPNCRYNNLAAGASYNCTTAKHTITAADMERGYFVPEATFSITSTTTPSLTKTVQFTGAAVALRDGLISADISGARTDVGRDLATRPYAAGELVPYAFTVKNTSPFVEQVVPTAGNFSPFLPAGAGNCRYLSLPAGQSYECATPRHAVTAEEVEQGFFVPDTTWEVSAAGQSTRTYRINGGEVDLLVRDAALSATVVAEWKDADGDRFASAGDPVTFTYTVGNAGNVALTGLEAPDAGISLPFLAPGDTATATREHVLTAADVAGGSLAASAFEATARNGSKEVTATAEGQPLELKVQPAQPSKEPELTVQDLEDQTPPFDLGTAFKYRTGQKVSLAGLEYGQWYYVYLNKTGYRLGWMFPTTGDTVEFILPPEVRNGRDDVVVLDKDGRRVSFDRLQVTPKGEKI
For B1, the “glycan array binding signal (z-score)” value [1] was -0.596, the “glycan array binding signal (z-score)” value [2] was -0.21 and the “glycan array binding signal (z-score)” value [3] was -0.073. The “glycan array binding signal (z-score)” value [4] was -0.581, the “glycan array binding signal (z-score)” value [5] was -0.773 and the “glycan array binding signal (z-score)” value [6] was -0.712. The “glycan array binding signal (z-score)” value (GlcNAc(b1-3)GalNAc) was -0.842, the “glycan array binding signal (z-score)” value (GlcNAc(b1-3)Man) was -0.685 and the “glycan array binding signal (z-score)” value [7] was -0.598. For the same binder, the “glycan array binding signal (z-score)” value [8] was -0.318, the “glycan array binding signal (z-score)” value [9] was -0.754 and the “glycan array binding signal (z-score)” value [10] was -0.492. For the same binder, the “glycan array binding signal (z-score)” value (GlcNAc(b1-4)GlcNAc) was -0.666, the “glycan array binding signal (z-score)” value [11] was -0.508 and the “glycan array binding signal (z-score)” value [12] was -0.744. The “glycan array binding signal (z-score)” value [13] was -0.757, the “glycan array binding signal (z-score)” value [14] was -0.568 and the “glycan array binding signal (z-score)” value [15] was -0.51. The “glycan array binding signal (z-score)” value (GlcNAc(b1-6)GalNAc) was -0.628, the “glycan array binding signal (z-score)” value [16] was -0.672 and the “glycan array binding signal (z-score)” value (Kdn(a2-3)Gal(b1-3)GalNAc) was 1.22. For the same binder, the “glycan array binding signal (z-score)” value (Kdn(a2-3)Gal(b1-3)GlcNAc) was 1.66, the “glycan array binding signal (z-score)” value (Kdn(a2-3)Gal(b1-4)Glc) was 0.165 and the “glycan array binding signal (z-score)” value (Kdn(a2-3)Gal(b1-4)GlcNAc) was 1.14. The “glycan array binding signal (z-score)” value [17] was 0.943, the “glycan array binding signal (z-score)” value (Kdn(a2-6)Gal(b1-4)GlcNAc) was 2.96 and the “glycan array binding signal (z-score)” value [18] was -0.731. The “glycan array binding signal (z-score)” value [19] was 0.26, the “glycan array binding signal (z-score)” value (Man(a1-2)Man(a1-3)Man) was -0.767 and the “glycan array binding signal (z-score)” value [20] was -0.413.
